# Measurements as given in PubChem BioAssay AID1656 (Sanford-Burnham Center for Chemical Genomics, 2009).
# This is one part of the list. Further columns of the screen follow, without active or inactive calls. Compounds called inactive in the main read-out are mostly missing here.
# Test: oleate-induced lipid droplet accumulation in AML12 cells – imaging, high-throughput imaging, BODIPY stain, primary screen (AID 1656);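 also: cells counted across two imaged fields per well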
# Settings: AML12 mouse hepatocytes, oleate lipid droplets, measured here: cell count, cytotoxicity flag, at 6.5 µM
# Method in brief: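 Material: mouse AML12 hepatocyte cell line, fixed after treatment; Timing: compound with oleate, overnight; Technique: high-content imaging of BODIPY-stained droplets and DAPI nuclei; Probe or stimulus: oleate, 100 µM final; Dosing: compound at 6.5 µM only.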
row,SMILES,cell count [cells]
1,COc1cccc(CNS(=O)(=O)c2ccc(S(=O)(=O)NC3CC3)cc2)c1,847
2,CCCOC(=O)c1ccc(NC(=O)c2ccc(Br)o2)cc1,654
3,CC1=Nc2cc(C(=O)NCc3ccco3)ccc2Sc2ccc(C)cc21,159
4,CC1=C([N+](=O)[O-])C(c2cccc(Br)c2)C2=C(N1)c1ccccc1C2=O (stereo unspecified),245
5,Cc1nc(NC(=O)/C=C/c2ccccc2)n[nH]1,294
6,C#CCOc1ccc(C2C3=C(COC3=O)Nc3cc4c(cc32)OCO4)cc1OC (stereo unspecified),38
7,CCOc1ccccc1NC(=O)CC1Nc2cc(C)c(C)cc2NC1=O (stereo unspecified),715
8,Cc1ccc(/C=N/NC(=O)COc2ccccc2-c2ccccc2)cc1,281
9,CC(C)(C)C1CCC(=NNC(=O)c2ccc(Br)o2)CC1 (stereo unspecified),190
10,C=CCSc1n[nH]c(-c2ccc(OCCCC)cc2)n1,691
11,Cc1cccc(Nc2nc(N)c([N+](=O)[O-])c(N3CCCC(C)C3)n2)c1 (stereo unspecified),638
12,CCCc1cc2c(=O)c(-c3ccc4c(c3)OCCO4)c(C)oc2cc1OS(C)(=O)=O,136
13,CCC(C)(C)NC(=O)C(c1ccc(OC)cc1)N(Cc1cccs1)C(=O)CCC(=O)Nc1cc(C)on1 (stereo unspecified),756
14,COc1ccc(C2(c3ccc(OC)cc3)NC(=O)N(CC(=O)Nc3cc(C)ccc3OC)C2=O)cc1,894
15,CCc1cc(SC#N)cc(CC)c1NC(=O)CCl,680
16,CCOc1ccc(CCNC(=O)CCS(=O)(=O)c2ccc(Br)cc2)cc1OCC,410
17,COc1cccc(N=CC=C2OC(C)(C)C(C)(C)O2)c1,678
18,CC(C)C(C)(C#N)NC(=O)CSc1nc2scc(-c3ccc(F)cc3)c2c(=O)n1Cc1ccccc1 (stereo unspecified),608
19,CCOC(=O)C1C2C=CC3(CN(Cc4cccs4)C(=O)C13)O2 (stereo unspecified),223
20,CC(=O)c1cccc(N=Nc2c(-c3ccccc3)[nH]n(-c3ccccc3)c2=O)c1,673
21,O=C(Nc1nc2ccccc2s1)c1ccc(OCC2CCCO2)cc1 (stereo unspecified),580
22,CCc1ccccc1NC(=O)COc1ccc(C(=S)N2CCCC2)cc1,690

row,SMILES,cell count [cells]
1,CCOc1ccc(CCNC(=O)c2cc3sccc3n2CC)cc1OCC,790
2,COc1ccccc1CNS(=O)(=O)c1ccc2c(c1)CC(C)N2C(=O)C1CC1 (stereo unspecified),694
3,CCCCCCNC(=O)c1cn(CC)c2cc(N3CCN(C)CC3)c(F)cc2c1=O,734
4,FC(F)Oc1ccc(-c2csc(NNC3=NCCCCC3)n2)cc1,620
5,CCOC(=O)c1ccccc1NC(=O)Cn1c(-c2nonc2N)nc2ccccc21,252
6,c1cc2c3c(cccc3c1)NC1(CCC3(CC1)Nc1cccc4cccc(c14)N3)N2,762
7,COc1ccc2c(c1)-c1c(ssc1=S)C(C)(C)N2S(=O)(=O)c1ccc(C)cc1,551
8,Cc1ccccc1OCC(=O)NCCCNC(=O)c1ccccn1,709
9,COc1ccc(CCn2ccc(O)c(Cc3ccc(Cl)cc3)c2=O)cc1OC,693
10,Cc1cc(=O)oc2cc(OCC(=O)NCCCN3CCCC3=O)ccc12,642
11,c1cc2c(cc1-c1csc(NNC3=NCCCCC3)n1)OCCO2,689
12,CCOC(=O)c1ccc(NC(=O)CSc2nc3c(c(=O)n2-c2ccccc2OC)SCC3)cc1,648
13,CCn1c2ccccc2c2cc(Nc3cc(C)nc4ncnn34)ccc21,268
14,O=C(NCc1cccs1)C1CCC(CNS(=O)(=O)c2cccs2)CC1 (stereo unspecified),768
15,COc1ccc(C(=O)NC2CCCc3c2cnn3-c2cccc(C)c2C)o1 (stereo unspecified),692
16,COc1ccc(NC(=O)C(=O)c2cn(CC(=O)N3CCCC3)c3ccccc23)cc1,223
17,Cc1nn(-c2ccccc2)c(N2CCCC2)c1/C=N/Nc1ccc(S(=O)(=O)Nc2ccccc2)cc1[N+](=O)[O-],664
18,CCCCOc1ccc(Br)cc1/C(C)=N/NC1=NCCN1,243
19,COc1ccccc1Nc1ccc(NC(=O)c2cccc([N+](=O)[O-])c2C)cc1,843
20,COc1ccc(C)cc1S(=O)(=O)N(CC(=O)Nc1cc([N+](=O)[O-])ccc1C)c1ccc(C)c(C)c1,678
21,COc1ccc(CCNC(=O)C2CC3Cn4c(nc5cc6ccccc6cc54)C3N2C)cc1 (stereo unspecified),765
22,CCc1cc(SC#N)cc(C)c1NC(=O)CCl,623

row,SMILES,cell count [cells]
1,O=C(CCl)N=c1sccn1Cc1ccc(Cl)cc1Cl,215
2,C=CCN1C(=O)/C(=C\C=C2\N(C)c3ccccc3C2(C)C)SC1=S,690
3,COc1ccc(C2(c3ccc(OC)cc3)NC(=O)N(CC(=O)Nc3ccc(OC)c(OC)c3)C2=O)cc1,807
4,Cc1ccc(NC(=O)CSc2nnc(C)c(=O)n2N)cc1Cl,725
5,COc1ccc(NC(=O)CCC(=O)Nc2cc(OC)c(NC(=O)c3cccs3)cc2OC)cc1,699
6,FC(F)(F)c1ccc(Cl)c(NC(=S)N/N=C/c2ccccc2C(F)(F)F)c1,666
7,C=CCNC(=S)Nc1cc(S(=O)(=O)N2CCOCC2)ccc1-n1cncn1,591
8,Cc1ccc(N(C)S(=O)(=O)c2ccc(-c3cnc(C4CC4)o3)cc2)cc1,211
9,COc1cc(C2C(C#N)=C(C)NC3=C2C(=O)c2ccccc23)cc(OC)c1OC (stereo unspecified),284
10,COc1ccc(CCNC(=O)c2cc(-c3ccccc3)c(N3CCOCC3)s2)c(OC)c1OC,757
11,CC1CCCCN1Cc1ccc(N)cc1 (stereo unspecified),164
12,COc1c(C)cc(Br)cc1C(=O)Nc1cccc(NC(=O)c2ccco2)c1,717
13,Cc1ccc(NC(=O)Cc2ccc3c(c2)CCCC3)cc1C,487
14,Cc1ccc(CCC(=O)Nc2ncc(Cc3cccc(Cl)c3Cl)s2)o1,33
15,O=C(N/N=C/C(Br)=C/c1ccccc1)c1n[nH]c2c1CCC2,147
16,CCOc1ccccc1/C=C(/NC(=O)c1ccccc1)C(=O)NCC(=O)O,503
17,COc1cc(NC(=O)c2oc3ccccc3c2C)ccc1NC(=O)c1ccco1,780
18,COc1ccc(/C=C(\NC(=O)c2cccs2)C(=O)Nc2cccc3ccccc23)cc1OC,622
19,Cn1c(=O)c(=O)n(C)c2cc(N3CCCC3)c(NS(=O)(=O)c3ccc(Cl)cc3)cc21,669
20,CCOc1ccc(CCNC(=O)Cn2nc(C)c3c(C)n(-c4ccccc4)nc3c2=O)cc1OCC,722
21,CC(C)(C)C(=O)Nc1nc2c(s1)COc1ccccc1-2,635
22,CC1CC(C)CN(C(=O)CSCC(=O)Nc2nc(-c3cccs3)cs2)C1 (stereo unspecified),598
